The text below walks through data of PubChem BioAssay AID1347073 (National Center for Advancing Translational Sciences (NCATS), 2019).

Among all 45,000 compounds or so, about 200 (0.44%) were called active. Another 7% or so got no clear call; they are omitted. Calls come from the whole dose curve; as a rule, active = well fitted activation curve with a large enough effect; inconclusive = small, poorly fitted or top-dose-only effect; inactive = no such curve, though single readings can be large or run the other way. Some of the results follow.

The experiment in a line: qHTS of TDP-43 Inhibitors: NCGC Sytravon Library Screen. Note: 0% is about no effect; nearly all actives have a fitted effect of over 55% in size. To be noted: yeast TDP-43 toxicity rescue, BacTiter-Glo growth, 24 h; series mostly up to 46.1 µM; growth rescue (activation): at the top concentration. In outline: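 TDP-43-expressing yeast, pregrown in raffinose, seeded at OD600 0.02 in galactose medium with compound for 24 hr at 30 deg C. Growth read by BacTiter-Glo luminescence, so rescue of toxicity appears as activation.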
(In general: In qHTS, concentration-response curves come from the screen itself.)
Regarding `CC(=O)c1cc2c(cc1N(C(=O)Cn1nnc3ccccc31)C(C(=O)NCCC(C)C)c1cccnc1)OCO2` (configuration not stated), the “growth rescue (activation)” value is inactive: -3.52%.

Turning to `CC1(C(=O)NS(=O)(=O)c2cccs2)CCN1C(=O)C1CC1` (configuration not stated), the “growth rescue (activation)” value is inactive: 5.36%.

As to `COc1ccc(C(=O)NCc2nnc(SCC(=O)c3ccc(F)cc3)n2C)cc1OC`, the “growth rescue (activation)” value is inactive: 2.22%.

Regarding `Cc1ccc(NC(=O)CSc2ncccn2)c([N+](=O)[O-])c1`, the “growth rescue (activation)” value was inactive: -1.78%.

Regarding `Cc1csc(SCC(=O)Nc2ccc(F)cc2Cl)n1`, the “growth rescue (activation)” value was inactive: 16.4%.

With `O=C(OCC(=O)N1CCN(c2ccccc2)CC1)c1ccco1`, the “growth rescue (activation)” value was inactive: 13.7%.

With `Cc1ccccc1NC(=O)CC(=O)Nc1ccccc1C`, the “growth rescue (activation)” value was inactive: -6.75%.

For the compound `Cc1ccc(NC(=O)c2oc3ccccc3c2C)c([N+](=O)[O-])c1`, the “growth rescue (activation)” value was inactive: -15.9%.

As for `O=C(CC1C(=O)NCCN1C(=O)Nc1ccc(Cl)cc1)Nc1ccc(F)cc1` (configuration not stated), the “growth rescue (activation)” value is inactive: -33.9%.

Consider `O=C(C1=NOC(CNc2ncc(C(F)(F)F)cc2Cl)C1)N1CCOCC1` (configuration not stated), for which the “growth rescue (activation)” value was inactive: 14%.

`Cc1nc(NC(=O)COC(=O)c2cc3c(s2)CCC(C)C3)c(Cl)cc1Cl` (configuration not stated): the “growth rescue (activation)” value was inactive: 5.28%.

On to `CCOc1ccc(S(=O)(=O)N2CCC(C(=O)N3CCOCC3)CC2)cc1Cl`, for which the “growth rescue (activation)” value was inactive: 1.81%.

As for `Cc1cccn2c(=O)c3cc(C(=O)NCCc4ccccc4)c(=N)n(Cc4ccco4)c3nc12`, the “growth rescue (activation)” value is inactive: 4.96%.

Turning to `COc1ccc(C2=NOC3(CC(=O)N(c4ccc(F)cc4)C3=O)C2)cc1` (configuration not stated), the “growth rescue (activation)” value was inactive: 11%.

Regarding `CN(C)/C=C/C(=O)c1cnc(-c2ccccc2)s1`, the “growth rescue (activation)” value is inactive: 14.7%.

Consider `CS(=O)(=O)N1CCN(c2ccccc2NC(=O)c2cc(Br)ccc2Cl)CC1`, for which the “growth rescue (activation)” value is inactive: 24.2%.

Turning to `Cc1cccn2c(=O)c(/C=C(\C#N)C(=O)NCc3ccco3)c(N3CCOCC3)nc12`, the “growth rescue (activation)” value was inactive: 2.6%.

Turning to `COc1ccc2c(c1)c1nc3ccccc3nc1n2Cc1ccc(OC(C)C)c(OC)c1`, the “growth rescue (activation)” value is inactive: 16.7%.

In the case of `CCCCn1c(N)c(N(CC)C(=O)CCNC(=O)c2ccc(Cl)cc2)c(=O)[nH]c1=O`, the “growth rescue (activation)” value was inactive: 10.3%.

`CCC(C(=O)Nc1cc(C(=O)O)ccc1C)c1ccccc1` (configuration not stated): the “growth rescue (activation)” value was inactive: -10.2%.

Consider `O=C(Nc1cc(S(=O)(=O)N2CCOCC2)ccc1N1CCCC1)c1ccc(Cl)cc1`, for which the “growth rescue (activation)” value is inactive: 6.06%.

Regarding `Cc1ccc2cc(C3CC(c4ccco4)=NN3S(C)(=O)=O)c(Cl)nc2c1` (configuration not stated), the “growth rescue (activation)” value is inactive: 16%.

Regarding `CC(C)C(=O)Nc1ccc(Br)cc1Cl`, the “growth rescue (activation)” value was inactive: 11.4%.

`CCOc1ccc(N2C(=O)/C(=C/c3ccco3)N(C)C2=S)cc1`: the “growth rescue (activation)” value is inactive: 16.8%.

In the case of `O=C(/C=C/c1ccc(Cl)cc1)NCc1cccs1`, the “growth rescue (activation)” value was inactive: 11.9%.

`CC1CCN(C(=O)CNC(=O)c2cccc(OC(F)F)c2)CC1`: the “growth rescue (activation)” value is inactive: -2.48%.

Turning to `O=C(CCCN1C(=O)c2ccccc2C1=O)Nc1c2c(nc3c1CCC3)CCC2`, the “growth rescue (activation)” value is inactive: 9.15%.

Regarding `C=CCn1c(SCC(=O)Nc2ccc(C)cc2C)nnc1-c1cccnc1`, the “growth rescue (activation)” value was inactive: 6.44%.

With `CCc1ccc(C2C(C#N)=C(N)Oc3cc(N)ccc32)cc1` (configuration not stated), the “growth rescue (activation)” value was inactive: 6.26%.

For the compound `CN(C)N1C(N)=C(C#N)C(c2ccccc2)C2=C1CC(C)(C)CC2=O` (configuration not stated), the “growth rescue (activation)” value is inactive: 0.358%.

Take `O=S(=O)(c1ccc(F)cc1)N1CCN(C(=S)NC2CCCC2)CC1`: the “growth rescue (activation)” value was inactive: -2.18%.

With `COc1cccc(NC(=O)C2CCC(CNS(=O)(=O)c3cccc4cccnc34)CC2)c1` (configuration not stated), the “growth rescue (activation)” value was inactive: 13.3%.

For `CC(=O)Nc1ccc(S(=O)(=O)N(C)CC(=O)OCC(=O)c2cc(C)n(-c3ccc4c(c3)OCO4)c2C)cc1`, the “growth rescue (activation)” value was inactive: -7.02%.

Take `COc1ccccc1C(=O)Nc1c(C(=O)NC(C)(C)C)oc2ccccc12`: the “growth rescue (activation)” value is inactive: 6.82%.

Regarding `O=C(/C=C/c1cccc([N+](=O)[O-])c1)N1CCN(c2ccccc2F)CC1`, the “growth rescue (activation)” value was inactive: 37.8%.

Consider `Cc1cccc(C(=O)NCC(=O)OCC(=O)NC2CCCCC2)c1`, for which the “growth rescue (activation)” value is inactive: 7.15%.

In the case of `Cc1ccc(NC(=O)CN(C)C2CCCCC2)cc1Br`, the “growth rescue (activation)” value is inactive: -0.394%.

Turning to `CCn1nnc(NC(=O)c2ccc(Br)o2)n1`, the “growth rescue (activation)” value was inactive: 3.92%.

Consider `O=C(c1ccccc1[N+](=O)[O-])N1CC2C3C=CC(C3)C2C1` (configuration not stated), for which the “growth rescue (activation)” value is inactive: 14.4%.

Regarding `Cc1ccc(C(=O)COc2ccc3ccc(=O)oc3c2)cc1`, the “growth rescue (activation)” value was inactive: 26.8%.

In the case of `Cc1ccc(NC(=O)Cc2nc(CCl)cs2)cc1`, the “growth rescue (activation)” value is inactive: -5.45%.

On to `CN(c1ccccc1)S(=O)(=O)c1cccc(C(=O)Nc2ccc(N3CCOCC3)cc2)c1`, for which the “growth rescue (activation)” value was inactive: -32%.

For the compound `C=CCc1cccc2cc(C(=O)NNC(=O)CC#N)c(=O)oc12`, the “growth rescue (activation)” value is inactive: 5.55%.

For the compound `COc1ccccc1S(=O)(=O)N1CCNC(=O)C1`, the “growth rescue (activation)” value was inactive: 16.7%.

On to `CCOc1ccc2[nH]c(=O)c(CN(CC3COCCO3)C(=O)c3ccco3)cc2c1` (configuration not stated), for which the “growth rescue (activation)” value is inactive: 8.7%.

With `NC(=O)C1CCN(CC(=O)Nc2ccc(S(=O)(=O)N3CCOCC3)cc2)CC1`, the “growth rescue (activation)” value is inactive: 0.55%.

In the case of `Cc1cc(=O)n(C2CCS(=O)(=O)C2)[nH]1` (configuration not stated), the “growth rescue (activation)” value was inactive: 5.9%.

Regarding `Cc1cc(C(=O)N2CCc3ccccc32)c2cc(F)ccc2n1`, the “growth rescue (activation)” value is inactive: -18.9%.

As for `COc1cc(C(=O)Nc2ccncc2)c([N+](=O)[O-])cc1OC`, the “growth rescue (activation)” value was inactive: 14.3%.

`O=C1CSC(=NC2CCCCC2)N1`: the “growth rescue (activation)” value is inactive: 21.5%.

Turning to `Cc1cccc2c(N=Nc3ccc(S(=O)(=O)Nc4ccc(Cl)cc4)cc3[N+](=O)[O-])c(O)[nH]c12`, the “growth rescue (activation)” value is inactive: -3.87%.

`SC(COCc1ccccc1)CN1CCN(Cc2ccc3c(c2)OCO3)CC1` (configuration not stated): the “growth rescue (activation)” value is inactive: -7.12%.
